Experimental data: the supplement of paper PMC10126150
Values marked as one replicate rest on one cluster of the flow cell; about a third of the high ones do not repeat.

Tested on: ATP
Experiment: switch fluorescence ratio, 500 uM ATP over buffer (Cy3 cluster intensity, sum of 5 cycles each) (fold (ratio)); higher = stronger signal-on switching upon ATP binding; sequences stand for … in TCGTCGGCAGCGTCAGATGTGTATAAGAGACAGTTTTTTTTTTTTTTTTTTTTTTTTT…TC
Details: aptamer strand: ATP DNA aptamer (quencher-CACCTGGGGGAGTATTGCGGAGGAAGG + anchor), 100 nM annealed; ATP concentration: 500 uM; one replicate
Method in brief: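 After annealing to 100 nM quencher-labelled ATP aptamer, Cy3-labelled switching-strand clusters on a modified Illumina MiSeq flow-cell were imaged in selection buffer. A second image followed after 15 min with 500 uM ATP at 22 °C, and five such buffer/ATP cycles were done, each separated by NaOH stripping and re-annealing. The fluorescence ratio, averaged per switch-domain sequence, is summed target-cycle over summed buffer-cycle Cy3 intensity per cluster, with clusters outside 100-1000 RFU excluded.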
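Note: ATP exposure 15 min at 22 °C before imaging.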

Row | Sequence | switch fluorescence ratio
1 | GGCACCTTTG | 1
2 | ATTATGAGAT | 1.01
3 | CAAACCTAGG | 1.03
4 | TTCCCATCAC | 1.13
5 | GGCGGAGACA | 0.978
6 | GATCCTGTCG | 1.05
7 | CGCTGAGCGG | 1.03
8 | GTTGATATGT | 1.02
9 | CAGCATCTCT | 1.15
10 | CAATTGGCAG | 0.952
11 | GGCGAGCAAG | 0.992
12 | CGTGCGGGAG | 0.961
13 | CCATCCACCC | 1.08
14 | CTCCATTTCA | 1.03
15 | TTGCAGCCCA | 0.94
16 | GGGAGAT | 1.01
17 | GCACATTTTA | 0.966
18 | GAGGCAAGCA | 1.11
19 | GCGGAGTGCT | 1.05
20 | AGGAATTGG | 1.02
21 | CAGGTTCTAG | 1.01
22 | TGCAAGTCAC | 1.01
23 | TTGCCGTCCG | 0.979
24 | TAGGACGTTC | 1.01
25 | TTATCTGACC | 1.03

Row | Sequence | switch fluorescence ratio
26 | CGTTTGAGAT | 1
27 | TATTGTTGAG | 0.981
28 | GCACCATCAT | 1.01
29 | CGTCGGGTTC | 1.02
30 | GGTCAGGACT | 0.978
31 | AGATGAAGGT | 1.02
32 | GGATAATTTG | 0.975
33 | GCCGCGGTCA | 1.04
34 | TTACCTGAGC | 1.11
35 | GTGTAGGGGC | 1.14
36 | TTGCGGGACG | 1
37 | GTTGACAATG | 0.947
38 | TTGTTTTAAC | 0.974
39 | AGCCTGGCCG | 1.02
40 | ACGCAGATCT | 1.05
41 | GCTCTTTCGC | 1.03
42 | TTCTATCGGT | 0.966
43 | CTGATAGGGG | 0.988
44 | GGCCGAGTTC | 1
45 | TATTGATAAC | 0.984
46 | GCTAAAAACG | 0.928
47 | GCCCTAGTAC | 1.15
48 | GTTCTTATCC | 1.03
49 | TTCAGCTTCA | 1.08
50 | ATGCGTTAGG | 0.997

Row | Sequence | switch fluorescence ratio
51 | ATCCATCCGT | 1.03
52 | TATGACGAAA | 1.17
53 | AGGATAATTT | 1.01
54 | AGTTCTGCCC | 0.927
55 | GCCGGGCAG | 1
56 | GTTGAATGCT | 0.932
57 | AGCCTTTCAG | 0.99
58 | TACCAGGTGG | 1.16
59 | CATAGGCGGA | 1.19
60 | ATGAGCAGTT | 0.976
61 | CAGGCGCCGC | 1.07
62 | CTCAAAGGGA | 1
63 | CCTTGAGGG | 0.996
64 | CTTTTTGCCA | 0.969
65 | TAAGAATGAT | 0.987
66 | TATCGAGTAC | 1.1
67 | CCTTAGGTGG | 1.06
68 | AGTAGGTCGA | 1.01
69 | AACGGGTGGG | 0.991
70 | ACGCGATCTC | 2.08
71 | GCAGCCACA | 1.06
72 | CAAGTTACTT | 1.08
73 | CCGTGTGTCT | 1.03
74 | TTTTAACCTC | 0.921
75 | ATTAGTAC | 0.997

Row | Sequence | switch fluorescence ratio
76 | TGATAAAAGA | 1.12
77 | CTGATTGGAA | 0.991
78 | AGATCCGGCA | 0.996
79 | TGAAATCGCT | 0.977
80 | TATAGCGATA | 1.19
81 | CGTTGGTAAT | 3.89
82 | AATGTGGCTT | 1.08
83 | TTAAGTGATG | 0.999
84 | GTCATTCACG | 1.03
85 | TCGCGGGATC | 0.975
86 | TGGATGTTGT | 1.01
87 | TATATTGCTC | 1.01
88 | AATACTGATA | 1.02
89 | CCCTCTGGAC | 1.2
90 | CGAGAATTGG | 0.997
91 | CTGGTATGCT | 0.976
92 | TTGCAGTTTT | 0.958
93 | GCGCTCGTAG | 1.01
94 | CAGTTGTCTG | 1.01
95 | CGACTGCGGA | 1.22
96 | GCTCTTCATT | 0.968
97 | CGTAGCTACA | 1.2
98 | CGTTTGACA | 1
99 | AAGACAGGCT | 1.01
100 | CATTGTACTA | 1.04

Row | Sequence | switch fluorescence ratio
101 | GCAATGAAGG | 1.1
102 | GAGGTCTTAG | 0.972
103 | TTAGATTCTG | 1.01
104 | TTCGCAGACG | 1.08
105 | GGCTTTCAAT | 1.01
106 | GGATGGTGTC | 0.976
107 | AACTTTTACC | 1.08
108 | TATGAGAAAT | 1.02
109 | TAACCTGAGC | 1.3
110 | CTACCATTGT | 1.02
111 | AATAGAAACG | 1.02
112 | TACCCCGGCA | 1.11
113 | GGATCGGCAT | 1.06
114 | TGGGAGCCAG | 0.999
115 | ACCCTGATGT | 1.03
116 | TAAGACGCGG | 1.04
117 | AACGCAAGG | 2.42
118 | TTTTGCGTT | 1.02
119 | TACTTTCAGG | 1.03
120 | TGGGTCTATC | 1.02
121 | ACGATTAGC | 1.05
122 | GACTTATA | 1.01
123 | GCTTGTATAC | 1.16
124 | GGCTCAGTGG | 1.03
125 | GACGATAGCA | 1.37

Row | Sequence | switch fluorescence ratio
126 | CTATGGATGA | 1.01
127 | TGGGGTTTAA | 0.938
128 | CAATTCACAT | 0.998
129 | AGGTATTTGG | 1.01
130 | CAATTTAGAG | 0.906
131 | ACTCTGTGAC | 2.01
132 | CGGCGTGCAC | 1.01
133 | GAGGCCCCGT | 1.03
134 | ATAGGTTCG | 1.03
135 | TGGGTGGCCC | 1.03
136 | GTGTACCCAT | 1.08
137 | ACATCTATAG | 0.953
138 | CCGGATGTAT | 1.13
139 | AATGATACTG | 0.97
140 | ATTGACGAT | 1
141 | GACATAAGCG | 0.986
142 | TCGTTGTTA | 0.959
143 | AAGCGCATCT | 1.01
144 | TGGACATAAT | 1
145 | TCTAACTCTC | 1.05
146 | GACCGCGGAA | 1.01
147 | TGCTTGCCTG | 1.01
148 | TGTCACGTTA | 1.22
149 | CTCCTAATCG | 1.13
150 | TGCTCAGAAT | 1.02

Row | Sequence | switch fluorescence ratio
151 | TCGGCGAGGT | 0.991
152 | CCCAATCACT | 1.8
153 | CCCATATAAC | 1.26
154 | TCCGTCAGGG | 1.01
155 | TCTAGTATGA | 0.973
156 | GGACCAACTA | 0.997
157 | TAGAGGATTG | 0.999
158 | AAGACAGCGG | 1.04
159 | TATGTGAAAG | 1.03
160 | AGAAAAACAC | 1.04
161 | ATCCTCGAAT | 1.01
162 | ACGGCGGACG | 0.977
163 | CCTGGCTCAG | 1.08
164 | GCCTTCAAGA | 1.04
165 | GTTAACTCCC | 1.33
166 | TATTTAGACA | 0.997
167 | TCTCACCAGC | 0.982
168 | TGAGGGTAGA | 1.03
169 | ACCCCCGCGT | 1.48
170 | GCCTCTATTG | 0.879
171 | GAAGGGTCTT | 0.974
172 | GGGAAAGCTC | 0.996
173 | GTGACAAGTC | 0.975
174 | AATCTCTGTA | 1.05
175 | AGTGGTACGC | 0.98

Row | Sequence | switch fluorescence ratio
176 | CTTCAGAGAA | 0.955
177 | ACGGATTAAA | 1.01
178 | AAACGGCCCA | 1.04
179 | TATTAGCTGC | 1
180 | TCAAAACACT | 1.02
181 | AATCGATTGA | 0.971
182 | GACAGTAGGA | 1.01
183 | TCACGTACGT | 1.62
184 | ATTGGTTTTG | 0.96
185 | CCCGACAGCT | 1.6
186 | ATGAAAGATA | 1.01
187 | ACAGAAAGCG | 1.03
188 | TCCGATATA | 1.04
189 | CTAGACAATT | 0.986
190 | GTGATATAAC | 1.03
191 | CACTGCACAG | 1.31
192 | GCCAATTTCC | 1.06
193 | GCAGTCCTAA | 1.04
194 | CATAGGGGTT | 0.96
195 | AGGCTCAAAT | 1
196 | ATCGCAGCGT | 0.977
197 | CCGTAAGGTT | 0.993
198 | TATTGGGTCC | 0.985
199 | ATTTACGGGA | 1.08
200 | ATTCTGAACT | 1.01
